From US12116397B2, “IL-IR-I binding polypeptide” (Swedish Orphan Biovitrum AB (publ), priority 2017, dated 2024) come the findings set out here.

As usually defined, the EC50 is the concentration needed to bring the measured effect to its halfway point. Read a low EC50 as greater potency.

This assay addresses T1, hIL-1R-I-Fc (Homo sapiens, UniProt P14778).
T1 construct: purchased Creative BioMart IL1 RI-771H
Kind of assay: EC50 analysis of Z variants by ELISA target titration. It is filed as binding. To be noted: periplasmic Z-ABD, hIL-1R-I-Fc 100 to 0.01 nM. As to the method:
A selection of IL-1R-I binding Z variants was subjected to an analysis of response against a dilution series of hIL-1R-1-Fc using ELISA as described above. The target protein hIL-1R-1-Fc was diluted stepwise 1:10 from 100 to 0.01 nM. As a background control, the Z variants were assayed with no target protein added. Obtained data was analyzed using GraphPad Prism 5 and non-linear regression, and the EC50 values (the half maximal effective concentration) were calculated.
(§1) A selection of IL-1R-I binding Z variants was subjected to an analysis of response against a dilution series of hIL-1R-1-Fc using ELISA as described above. The target protein hIL-1R-1-Fc was diluted stepwise 1:10 from 100 to 0.01 nM. As a background control, the Z variants were assayed with no target protein added. Obtained data was analyzed using GraphPad Prism 5 and non-linear regression, and the EC50 values (the half maximal effective concentration) were calculated. A periplasmic extract with Z12967 (SEQ ID NO:9) was analyzed in parallel for signal comparison.
as §1, with “binding” for “binding Z variants”, “20” for “100”, “0.002” for “0.01”, “Periplasmic extracts” for “A periplasmic extract”, “Z12967, Z16065 and Z16218 (corresponding to SEQ ID:9, 268 and 414, respectively) were” for “Z12967 (SEQ ID NO:9) was”, “comparison. As negative control, a periplasmic extract of ABD001 was used.” for “comparison.”

Where [1] appears, read: first matured library (Example 4).

T1 sequence (P14778 with tags, fused parts or gaps limits assumed): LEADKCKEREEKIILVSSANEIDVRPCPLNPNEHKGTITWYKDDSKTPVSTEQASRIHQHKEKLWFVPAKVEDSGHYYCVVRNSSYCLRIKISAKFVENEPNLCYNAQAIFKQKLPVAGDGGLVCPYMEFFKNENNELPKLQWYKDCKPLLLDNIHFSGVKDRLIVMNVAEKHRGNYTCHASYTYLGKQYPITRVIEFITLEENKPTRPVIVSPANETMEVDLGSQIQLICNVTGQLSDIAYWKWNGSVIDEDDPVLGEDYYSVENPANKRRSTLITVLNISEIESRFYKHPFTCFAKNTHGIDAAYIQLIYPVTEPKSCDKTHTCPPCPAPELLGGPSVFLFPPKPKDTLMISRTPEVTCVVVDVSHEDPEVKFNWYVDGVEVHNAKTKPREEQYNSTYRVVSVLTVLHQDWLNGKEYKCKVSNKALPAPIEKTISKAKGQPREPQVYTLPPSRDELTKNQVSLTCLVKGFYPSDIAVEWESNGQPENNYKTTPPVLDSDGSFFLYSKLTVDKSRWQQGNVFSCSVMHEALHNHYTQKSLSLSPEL

Turning to “Z15897: IL-1R-I binding Z variant (VDAKYAKETENAQMEIFALPNLTRKQYTAFIRKLLDDPSQSSELLSEAKKLNDSQAPK; Engineered IL-1R-I binding polypeptide)”, under setting [1], the EC50 turned out to be 0.25 nM.

In turn, “Z15923: IL-1R-I binding Z variant (VDAKYAKETYYAQMEIFTLPNLTRKQYTAFIRKLFDDPSQSSELLSEAKKLNDSQAPK; Engineered IL-1R-I binding polypeptide)” returned a half-maximal effective concentration (EC50) under setting [1] of 0.24 nM. Under setting [1], “Z16234: IL-1R-I binding Z variant (VDAKYAKEVEDAYYEIYSLPNLTRKQYTAFIRKLLDDPSQSSELLSEAKKLNDSQAPK; Engineered IL-1R-I binding polypeptide)” gave an EC50 of 0.54 nM.

Regarding “Z16321: IL-1R-I binding Z variant (VDAKYAKEIEEAQMEIYTLPNLTRKQYTAFIRKLLDDPSQSSELLSEAKKLNDSQAPK; Engineered IL-1R-I binding polypeptide)”, the concentration giving a half-maximal response (EC50) under setting [1] was 0.27 nM. Compared with the last substance, the EC50 is about 2-fold lower. Under setting [1], “Z16041: IL-1R-I binding Z variant (VDAKYAKEIETAQMEIFALPNLTRKQYTAFIRKLFDDPSQSSELLSEAKKLNDSQAPK; Engineered IL-1R-I binding polypeptide)” registered an EC50 of 0.24 nM. Same read-out and setting: the same measure for “Z16000: IL-1R-I binding Z variant (VDAKYAKEAYRAQMEIFALPNLTRKQYTAFIRKLLDDPSQSSELLSEAKKLNDSQAPK; Engineered IL-1R-I binding polypeptide)”: 0.24 nM; for “Z15987: IL-1R-I binding Z variant (VDAKYAKEVEEAQMEIYYLPNLTRKQYTAFIRKLLDDPSQSSELLSEAKKLNDSQAPK; Engineered IL-1R-I binding polypeptide)”: 0.23 nM; for “Z16049: IL-1R-I binding Z variant (VDAKYAKEVEQAQMEIFSLPNLTRKQYTAFIRKLLDDPSQSSELLSEAKKLNDSQAPK; Engineered IL-1R-I binding polypeptide)”: 0.24 nM.

Turning to “Z16264: IL-1R-I binding Z variant (VDAKYAKEVEVAYFEIFALPNLTRKQYTAFIRKLLDDPSQSSELLSEAKKLNDSQAPK; Engineered IL-1R-I binding polypeptide)”, the EC50 under setting [1] came out at 0.3 nM. On the same count and under the same terms, as for “Z15960: IL-1R-I binding Z variant (VDAKYAKETEAAQMEIFALPNLTRKQYTAFIRKLLDDPSQSSELLSEAKKLNDSQAPK; Engineered IL-1R-I binding polypeptide)”, the figure is 0.23 nM. Same read-out and setting: the same measure for “Z16102: IL-1R-I binding Z variant (VDAKYAKEVETAQMEIYQLPNLTRKQYTAFIRKLFDDPSQSSELLSEAKKLNDSQAPK; Engineered IL-1R-I binding polypeptide)”: 0.28 nM. Under setting [1], “Z16058: IL-1R-I binding Z variant (VDAKYAKEVEEAQMEIFKLPNLTRKQYTAFIRKLLDDPSQSSELLSEAKKLNDSQAPK; Engineered IL-1R-I binding polypeptide)” had an EC50 of 0.23 nM. Still for that read-out and setting: the same measure for “Z16173: IL-1R-I binding Z variant (VDAKYAKEIEAAYAEIYQLPNLTRKQYTAFIRKLLDDPSQSSELLSEAKKLNDSQAPK; Engineered IL-1R-I binding polypeptide)”: 0.36 nM; for “Z16051: IL-1R-I binding Z variant (VDAKYAKEVESAQMEIFALPNLTRKQYTAFIRKLLDDPSQSSELLSEAKKLNDSQAPK; Engineered IL-1R-I binding polypeptide)”: 0.25 nM; for “Z16388: IL-1R-I binding Z variant (VDAKYAKEHEDAYMEIYALPNLTRKQYTAFIRKLLDDPSQSSELLSEAKKLNDSQAPK; Engineered IL-1R-I binding polypeptide)”: 0.29 nM. For the substance “Z16246: IL-1R-I binding Z variant (VDAKYAKEVEDAYMEIFKLPNLTRKQYTAFIRKLLDDPSQSSELLSEAKKLNDSQAPK; Engineered IL-1R-I binding polypeptide)”, the response under setting [1] was half-maximal at 0.39 nM (EC50). Under setting [1], “Z16092: IL-1R-I binding Z variant (VDAKYAKEIEQAQMEIYRLPNLTRKQYTAFIRKLLDDPSQSSELLSEAKKLNDSQAPK; Engineered IL-1R-I binding polypeptide)” gave an EC50 of 0.24 nM. Compared with the last substance, the EC50 is about 1.6-fold lower. Same read-out and setting: as for “Z16084: IL-1R-I binding Z variant (VDAKYAKEIEIAQMEIFELPNLTRKQYTAFIRKLFDDPSQSSELLSEAKKLNDSQAPK; Engineered IL-1R-I binding polypeptide)”, the figure is 0.22 nM; as for “Z16050: IL-1R-I binding Z variant (VDAKYAKEVEAAQMEIFNLPNLTRRQYTAFIRKLLDDPSQSSELLSEAKKLNDSQAPK; Engineered IL-1R-I binding polypeptide)”, 0.23 nM; as for “Z16053: IL-1R-I binding Z variant (VDAKYAKETERAQMEIFALPNLTRKQYTAFIRKLLDDPSQSSELLSEAKKLNDSQAPK; Engineered IL-1R-I binding polypeptide)”, 0.25 nM.

Under setting [1], “Z17255: IL-1R-I binding Z variant (VDAKYAKEVEQAYYEIYALPNLTRKQYTAFIRKLLDDPSQSSELLSEAKKLNDSQAPK; Engineered IL-1R-I binding polypeptide)” registered an EC50 of 0.25 nM.

Under setting [1], “Z15978: IL-1R-I binding Z variant (VDAKYAKEVEAAQMEIFNLPNLTRKQYTAFIRKLLDDPSQSSELLSEAKKLNDSQAPK; Engineered IL-1R-I binding polypeptide)” showed an EC50 of 0.48 nM. Compared with the last substance, the EC50 is about 1.9-fold higher. Take “Z15929: IL-1R-I binding Z variant (VDAKYAKETERAQMEIFALPNLTRRQYTAFIRKLLDDPSQSSELLSEAKKLNDSQAPK; Engineered IL-1R-I binding polypeptide)”: the EC50 under setting [1] was found to be 0.24 nM.

Take “Z17279: IL-1R-I binding Z variant (VDAKYAKEVEDAYFEIYYLPNLTRKQYTAFIRKLLDDPSQSSELLSEAKKLNDSQAPK; Engineered IL-1R-I binding polypeptide)”: the EC50 under setting [1] worked out at 0.28 nM.

In the case of “Z16089: IL-1R-I binding Z variant (VDAKYAKEIESAYYEIFALPNLTRKQYTAFIRKLLDDPSQSSELLSEAKKLNDSQAPK; Engineered IL-1R-I binding polypeptide)”, the response under setting [1] was half-maximal at 0.24 nM (EC50). Regarding “Z16156: IL-1R-I binding Z variant (VDAKYAKEIERAQMEIFSLPNLTRKQYTAFIRKLLDDPSQSSELLSEAKKLNDSQAPK; Engineered IL-1R-I binding polypeptide)”, a half-maximal effect under setting [1] (EC50) was put at 0.24 nM. That is a sub-nanomolar value. On to “Z16122: IL-1R-I binding Z variant (VDAKYAKEAEDAYMEIYSLPNLTRRQYTAFIRKLLDDPSQSSELLSEAKKLNDSQAPK; Engineered IL-1R-I binding polypeptide)”, for which the midpoint of the response under setting [1], the EC50, lay at 0.29 nM. Same read-out and setting: as for “Z16207: IL-1R-I binding Z variant (VDAKYAKEVEEAQMEIYNLPNLTRKQYTAFIRKLLDDPSQSSELLSEAKKLNDSQAPK; Engineered IL-1R-I binding polypeptide)”, the figure is 0.22 nM; as for “Z16241: IL-1R-I binding Z variant (VDAKYAKEVEDAYWEIYALPNLTRKQYTAFIRKLLDDPSQSSELLSEAKKLNDSQAPK; Engineered IL-1R-I binding polypeptide)”, 0.49 nM. Same read-out and setting: the same measure for “Z16236: IL-1R-I binding Z variant (VDAKYAKETEEAQMEIFNLPNLTRKQYTAFIRKLLDDPSQSSELLSEAKKLNDSQAPK; Engineered IL-1R-I binding polypeptide)”: 0.24 nM; for “Z17278: IL-1R-I binding Z variant (VDAKYAKEIERAYYEIYDLPNLTRKQYTAFIRKLLDDPSQSSELLSEAKKLNDSQAPK; Engineered IL-1R-I binding polypeptide)”: 0.27 nM. Take “Z16003: IL-1R-I binding Z variant (VDAKYAKEVYIAQMEIYGLPNLTRKQYTAFIRKLFDDPSQSSELLSEAKKLNDSQAPK; Engineered IL-1R-I binding polypeptide)”: under setting [1], the EC50 was 0.28 nM. This EC50 and that of the substance before are within 1.5-fold of each other. Same read-out and setting: the same measure for “Z16141: IL-1R-I binding Z variant (VDAKYAKEVVQAYDEIYGLPNLTRKQYTAFIRKLLDDPSQSSELLSEAKKLNDSQAPK; Engineered IL-1R-I binding polypeptide)”: 0.28 nM. Where the note is “primary selection (Example 1)”, “Z12891: IL-1R-I binding Z variant (VDAKYAKEQSQAYHEIFKLPNLTRRQYTAFIMKLLDDPSQSSELLSEAKKLNDSQAPK; Engineered IL-1R-I binding polypeptide)” displayed an EC50 of 2.2 nM.

Regarding “Z15886: IL-1R-I binding Z variant (VDAKYAKEVERAQMEIFALPNLTRKQYTAFIRKLLDDPSQSSELLSEAKKLNDSQAPK; Engineered IL-1R-I binding polypeptide)”, under setting [1], the midpoint of the response, the EC50, lay at 0.26 nM. In other words, the sub-nanomolar range.

With “Z15999: IL-1R-I binding Z variant (VDAKYAKEVEIAYMEIFHLPNLTRKQYTAFIRKLLDDPSQSSELLSEAKKLNDSQAPK; Engineered IL-1R-I binding polypeptide)”, the response under setting [1] was half-maximal at 0.24 nM (EC50). Same read-out and setting: the same measure for “Z16771: IL-1R-I binding Z variant (VDAKYAKEVEVAYMEIFQLPNLTRKQYTAFIRKLLDDPSQSSELLSEAKKLNDSQAPK; Engineered IL-1R-I binding polypeptide)”: 0.24 nM.
